The supplement of paper PMC3334620
In all, about 33,000 sequences were measured (“E-score (-0.5 to 0.5)”: median about -0.035, highest 2% from about 0.35 on). This is one part of the list.

Biological target: T1, Pdr3 (UniProt P33200)
T1 sequence: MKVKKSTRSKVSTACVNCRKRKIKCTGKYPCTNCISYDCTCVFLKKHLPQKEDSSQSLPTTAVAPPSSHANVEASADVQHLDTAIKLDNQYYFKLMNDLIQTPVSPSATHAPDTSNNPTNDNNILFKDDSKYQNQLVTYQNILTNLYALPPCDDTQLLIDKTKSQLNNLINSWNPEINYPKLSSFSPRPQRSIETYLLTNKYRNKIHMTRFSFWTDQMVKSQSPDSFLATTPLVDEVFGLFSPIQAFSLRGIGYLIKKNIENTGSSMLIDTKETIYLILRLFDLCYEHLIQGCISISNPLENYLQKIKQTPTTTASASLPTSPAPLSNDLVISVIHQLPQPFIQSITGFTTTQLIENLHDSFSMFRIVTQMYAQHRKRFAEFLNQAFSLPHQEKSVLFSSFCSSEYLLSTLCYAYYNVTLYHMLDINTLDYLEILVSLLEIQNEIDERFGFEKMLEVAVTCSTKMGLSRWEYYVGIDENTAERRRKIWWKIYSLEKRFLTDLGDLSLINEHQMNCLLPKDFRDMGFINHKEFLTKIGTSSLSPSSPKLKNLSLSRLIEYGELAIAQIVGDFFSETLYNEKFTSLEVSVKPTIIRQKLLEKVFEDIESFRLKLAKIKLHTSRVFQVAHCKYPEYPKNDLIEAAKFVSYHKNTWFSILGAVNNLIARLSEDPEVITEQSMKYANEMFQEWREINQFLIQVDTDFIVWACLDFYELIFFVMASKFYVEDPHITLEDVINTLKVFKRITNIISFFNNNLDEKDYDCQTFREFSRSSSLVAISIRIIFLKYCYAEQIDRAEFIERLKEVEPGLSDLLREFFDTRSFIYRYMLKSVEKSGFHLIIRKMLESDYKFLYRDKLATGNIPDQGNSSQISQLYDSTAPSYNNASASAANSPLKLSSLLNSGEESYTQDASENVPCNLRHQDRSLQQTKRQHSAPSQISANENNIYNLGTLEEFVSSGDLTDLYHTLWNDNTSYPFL
Assay: PBM E-score (8-mer binding enrichment) (E-score (-0.5 to 0.5)); higher = stronger / more preferred TF binding; most listed sequences are background and not binding sites
Settings: protein concentration: 200 nM; construct: GST-full length
How it was run: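 Universal all-10-mer Agilent arrays, fresh or stripped once, were converted to double-stranded form by primer extension. GST-tagged yeast transcription factors from PURExpress in vitro transcription/translation, full-length or DNA-binding domain only, were applied at about 100-200 nM and detected with fluorescent anti-GST. After masliner normalisation, the Universal PBM Analysis Suite scored each ungapped eight-base word together with its reverse complement by E-score.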

| Sequence | PBM E-score |
| --- | --- |
| CATGGATC | 0.0469 |
| AGTATGCC | -0.0201 |
| AGGAGCAA | -0.123 |
| CACGTGAG | -0.13 |
| GCCCGATA | -0.0521 |
| CCGCAAAG | 0.187 |
| ACGGTTTC | 0.0261 |
| ACGTCTCA | -0.109 |
| GCACATAC | -0.15 |
| CACTATTC | 0.114 |
| AAGGATGA | -0.2 |
| CATGCACG | -0.125 |
| AAGTTCGG | 0.203 |
| CTGGACCA | -0.0399 |
| AAGAGATG | -0.115 |
| TGTCAGAA | -0.24 |
| GCTACAAA | -0.0558 |
| ACGTTGAA | 0.0256 |
| ATGCAACC | 0.143 |
| AGACGTTA | -0.314 |
| GACCTTGA | -0.278 |
| AGGTAGGG | -0.232 |
| AAACATCA | -0.114 |
| AGAATTCC | 0.201 |
| GGTGCCAA | -0.144 |

| Sequence | PBM E-score |
| --- | --- |
| ACACTTGG | -0.125 |
| ATCGGCTC | 0.101 |
| ACTTCGAG | -0.0109 |
| CGCCGCTC | 0.302 |
| ATGATATC | 0.0293 |
| ATGAGCCA | -0.106 |
| CCCCACGC | -0.138 |
| CAGGGATC | -0.144 |
| GACAAATA | 0.0813 |
| AGGACTCG | -0.202 |
| TGATTGCA | -0.065 |
| ACCCGCAC | 0.226 |
| CAGACGGG | 0.103 |
| AGGATTGC | -0.127 |
| AAATCCCG | 0.326 |
| CGAGAATC | 0.0591 |
| ATCGACCA | -0.176 |
| ACACAATC | -0.0293 |
| CCCGCCTA | 0.146 |
| GGATTAAC | -0.0123 |
| CGTCTAGC | -0.175 |
| AATAAGAC | -0.334 |
| AAGCCCGA | -0.033 |
| GTGAGTGA | -0.0672 |
| ACCCTAAC | -0.102 |

| Sequence | PBM E-score |
| --- | --- |
| AATGATAG | 0.184 |
| ATCGTTTG | 0.0176 |
| GCCAAAGC | -0.197 |
| GACTACAC | -0.142 |
| ATCGCAGA | -0.213 |
| ACTAAGCG | -0.136 |
| CACGGCAA | 0.177 |
| CACAGGGC | -0.155 |
| AACATCAG | -0.137 |
| TACGGAAA | 0.402 |
| CGTGCCCA | 0.0711 |
| AAATGGTC | 0.111 |
| TACCGACA | 0.134 |
| ATCTCAGC | 0.124 |
| AAAGCCAT | 0.0182 |
| CGCATTCC | 0.16 |
| GGTCAGGA | -0.051 |
| GGATAGCA | 0.059 |
| CTTCCTAC | -0.364 |
| CTGTTAGA | -0.167 |
| GGGTCTAC | 0.0473 |
| CACGGATC | 0.395 |
| ACCTAAAT | -0.00299 |
| CTAACTTA | -0.0639 |
| GAACCAGC | 0.0502 |

| Sequence | PBM E-score |
| --- | --- |
| ATAGTGTG | 0.029 |
| GCACCTGC | 0.00979 |
| CCAGGTCG | -0.161 |
| AAGGTAGG | 0.0215 |
| GAGGAAAA | 0.0256 |
| CGATCATA | -0.0347 |
| AACGGTCT | 0.0116 |
| AAACACTG | 0.0276 |
| CAGGTCAA | -0.159 |
| GGACGCCC | 0.1 |
| TGGTGAAA | -0.109 |
| CAGGCAAG | -0.166 |
| CTGCAGCA | -0.0422 |
| CGCCGCCC | 0.21 |
| CTTCAGTA | -0.00641 |
| TAAAACCA | -0.273 |
| ATCTGCGC | -0.0412 |
| ACGCGCTA | -0.0535 |
| GCATGCAA | 0.0539 |
| CCACTCTC | -0.0278 |
| CCGACCAA | 0.177 |
| GGGCAGCA | -0.1 |
| AGGCTCGA | -0.16 |
| AGCCCATC | -0.0509 |
| ACGACACT | -0.177 |

| Sequence | PBM E-score |
| --- | --- |
| ACAGTCGC | -0.277 |
| ACGAGTGG | -0.0946 |
| AGTGATTG | -0.0596 |
| CCGGTGGA | 0.254 |
| ATTCTAGA | -0.169 |
| ACGTCGTA | -0.215 |
| GCAAGACA | -0.173 |
| GTTAATAA | 0.136 |
| CTGTCGAC | -0.154 |
| CCACGGCG | 0.182 |
| TGGCCCAA | -0.0945 |
| GCACCTCA | 0.00746 |
| CATCTTAA | -0.238 |
| CGAGGTAG | 0.0204 |
| AACCTGAG | -0.0502 |
| CTCAACGC | -0.146 |
| AAATGACG | -0.0199 |
| CGCTTCAG | -0.0104 |
| CATGCGGA | 0.209 |
| CCAGGATA | 0.0385 |
| AGTGCACC | 0.0331 |
| ACACACAG | 0.036 |
| ACGTTATA | -0.0803 |
| ATGATGAG | -0.121 |
| CGCACCCA | -0.0255 |

| Sequence | PBM E-score |
| --- | --- |
| CAGCACGC | 0.0491 |
| GTCTACTA | -0.0523 |
| ACAACGGC | 0.0581 |
| ACAACCCA | -0.0147 |
| AGTGCATC | -0.047 |
| AAGGGAGG | -0.00086 |
| AAGGCGGA | 0.225 |
| CGTCGACG | 0.278 |
| GTAGTTGA | 0.0287 |
| CATTAGTC | -0.0184 |
| ACCGTTGG | 0.0171 |
| ACATGAGG | -0.0733 |
| CTTTTACA | -0.0518 |
| ATCCCACA | -0.102 |
| ACGGGGTC | 0.23 |
| ATTCAGCC | -0.0375 |
| ACGGCGCA | 0.19 |
| CGAAAGAC | -0.0528 |
| GGTGTAAC | 0.00381 |
| GAAAGAGC | -0.0788 |
| CCCAAACG | -0.103 |
| ATGCACGG | 0.182 |
| CCCACGGC | 0.0935 |
| GCAGGCCA | 0.0751 |
| GAATATGA | 0.0903 |

| Sequence | PBM E-score |
| --- | --- |
| AGGGTCTA | -0.182 |
| TACCGCGA | 0.169 |
| GTGAAAGA | -0.0383 |
| AGTAGTTG | 0.0866 |
| CTGACCTC | -0.0557 |
| AAATCGTG | 0.0785 |
| GATGTCCA | 0.058 |
| TGAGTGAA | -0.0335 |
| GTAGGGCA | -0.154 |
| ATCCCTTG | -0.136 |
| CAAGGAAG | -0.0209 |
| GAGATACC | 0.158 |
| ATCAGAAG | 0.00355 |
| AGGCAGCG | -0.144 |
| CACCTCAC | -0.026 |
| CTTGTATC | -0.166 |
| GCCGGACC | 0.303 |
| ACCAATCT | -0.0122 |
| CTGATGAC | -0.127 |
| GCGGATGA | 0.303 |
| ATACAATA | 0.142 |
| ACCCTCGC | -0.051 |
| CATGAGAG | -0.0845 |
| AGGCGTTG | -0.0952 |
| ACACCTCC | -0.0329 |

| Sequence | PBM E-score |
| --- | --- |
| GTGGATCA | -0.178 |
| AAAAAACG | -0.0282 |
| AACCTCCC | 0.0617 |
| CGGTGATA | 0.0933 |
| GGAATTTA | 0.212 |
| AAGCAACT | -0.109 |
| CTATCGCC | -0.185 |
| CAGATTCC | 0.242 |
| CGCTAATC | 0.0544 |
| CCGTTAGC | -0.0333 |
| CGTTATAC | -0.177 |
| CCTCGGCC | 0.251 |
| ACACCCAC | -0.01 |
| CAAATAAG | -0.0749 |
| AGTAACTA | 0.0843 |
| ATTAGATG | 0.0805 |
| CATTCAAC | -0.03 |
| TAAGGGAA | -0.127 |
| CATCCGGC | 0.295 |
| TTAAAGAA | -0.061 |
| ATACTCTA | -0.144 |
| GTCGCCGA | 0.131 |
| AACCCGTC | 0.0509 |
| GCAGTAAC | -0.243 |
| ACTTCAAC | 0.0423 |

| Sequence | PBM E-score |
| --- | --- |
| AAAAACTA | 0.0302 |
| GAGACACA | -0.0286 |
| CTTAGTCC | -0.0741 |
| TCACTAGA | 0.0476 |
| CGTGTGGA | -0.0657 |
| TACCGCTA | -0.17 |
| TAGCCGAA | 0.0812 |
| AGAACCGC | 0.0223 |
| AGACACTC | -0.198 |
| CAGTAATG | -0.162 |
| ACCGCCTC | -0.0991 |
| AAGGCAAC | 0.114 |
| ACGGGACA | 0.311 |
| CAGATTTA | 0.0318 |
| AAGGTCGC | 0.176 |
| ACAGATCT | -0.113 |
| CTATTCAG | -0.214 |
| AGAGGGGC | -0.138 |
| AATCACCC | 0.0668 |
